Results as given in CN113651889A.

Tests used:
[1] = target: EphA2 receptor on tumour cells (PC-3, HepG2, A549) and on lung adenocarcinoma tissue (human) (UniProt P29317); test: flow cytometry on PC-3 cells, antibody at 1.25 ug/ml and above, Alexa Fluor 488 anti-human IgG
[2] = target: EphA2 receptor on tumour cells (PC-3, HepG2, A549) and on lung adenocarcinoma tissue (human) (UniProt P29317); test: flow cytometry on A549 cells, antibody at 2.5 ug/ml and above, Alexa Fluor 488 anti-human IgG
[3] = target: EphA2 receptor on tumour cells (PC-3, HepG2, A549) and on lung adenocarcinoma tissue (human) (UniProt P29317); test: flow cytometry on A549 cells, antibody at 1.25 ug/ml and above, Alexa Fluor 488 anti-human IgG
[4] = target: EphA2 receptor on tumour cells (PC-3, HepG2, A549) and on lung adenocarcinoma tissue (human) (UniProt P29317); test: flow cytometry on PC-3 cells, antibody at 2.5 ug/ml and above, Alexa Fluor 488 anti-human IgG

UniProt P29317, sequence (P29317 24-976): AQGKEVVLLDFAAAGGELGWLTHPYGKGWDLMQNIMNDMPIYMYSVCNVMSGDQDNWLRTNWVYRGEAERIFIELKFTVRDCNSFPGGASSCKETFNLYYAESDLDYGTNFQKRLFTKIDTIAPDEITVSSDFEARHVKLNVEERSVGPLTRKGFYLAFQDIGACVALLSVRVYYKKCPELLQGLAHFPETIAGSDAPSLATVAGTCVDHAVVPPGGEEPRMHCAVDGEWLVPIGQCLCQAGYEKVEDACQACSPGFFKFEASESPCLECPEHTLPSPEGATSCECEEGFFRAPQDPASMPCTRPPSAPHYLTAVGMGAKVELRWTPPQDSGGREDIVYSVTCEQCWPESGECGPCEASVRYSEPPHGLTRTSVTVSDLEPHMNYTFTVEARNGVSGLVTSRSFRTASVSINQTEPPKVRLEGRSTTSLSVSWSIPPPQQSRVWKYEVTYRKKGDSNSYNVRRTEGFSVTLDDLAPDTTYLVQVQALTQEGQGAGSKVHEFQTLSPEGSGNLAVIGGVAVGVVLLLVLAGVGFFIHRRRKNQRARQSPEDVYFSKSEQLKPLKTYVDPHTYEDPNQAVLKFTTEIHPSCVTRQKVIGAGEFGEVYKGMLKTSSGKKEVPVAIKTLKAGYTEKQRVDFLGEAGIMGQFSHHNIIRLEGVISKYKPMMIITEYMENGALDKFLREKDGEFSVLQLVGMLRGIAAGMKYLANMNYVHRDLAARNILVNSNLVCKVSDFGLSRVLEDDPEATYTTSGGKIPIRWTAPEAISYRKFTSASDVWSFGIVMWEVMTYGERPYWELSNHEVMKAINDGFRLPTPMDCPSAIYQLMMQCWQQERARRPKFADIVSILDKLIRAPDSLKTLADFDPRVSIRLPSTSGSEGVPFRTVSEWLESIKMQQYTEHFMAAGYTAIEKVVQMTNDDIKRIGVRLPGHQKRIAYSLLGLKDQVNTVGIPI

Binder	结合率 (percent of cells bound) [1]	结合率 (percent of cells bound) [2]	结合率 (percent of cells bound) [3]	结合率 (percent of cells bound) [4]
scFv179-Fc (Fc fusion) QVQLVESGGGLVQPGGSLRLSCAASGFTVSSNYMSWVRQAPGKELEWVSVIYSGGSTYYADSVKGRFTISRHNSKNTLYLQMNSLRAEDTAVYYCARDMGEYGMDVWGQGTTVTVSSGSASAPTGGGGSGGGGSGGGGSSYELTQPLSVSVSPGQTASITCSGDKLGNKYVSWYQQKPGQSPVLVIFQNNKRPSGIPERFSGSNSGNTATLTISGTQAMDEADFYCQAWDSSSAWVFGGGTKVTVL[gap - human IgG1 Fc]	> 99%	> 93%		
scFv77-Fc (Fc fusion) QVQLVQSGAEVKKPGASVKVSCRASGYRFTGAYIHWVRQAPGQGLEWMGWINPDNGDTNYAQKFQGRVSLTGDTSISTTYMEMKSLTFGDTAVYYCARSRAADYWGQGTLVTVSSGGGGSGGGGSGGGGSQPVLTQSPSVSVSPGHRVTITCSGDNLGDKYVAWYQQKLGHSPVLVIFQDTKRPSGVPERFSGSTSENTATLTISGIQVLDEADYYCQAWDRSTAIFGGGTKVTVL[gap - human IgG1 Fc]	> 99%		> 99%	
scFv14-Fc (Fc fusion) QVQLQQWGAGLLKPSETLSLTCAVYGGSFSGYYWSWIRQPPGKGLEWIGEINHSGSTNYNPSLKSRVTISVDTSKNQFSLKLSSVTAADTAVYYCARVLRWMGWFDPWGQGTLVTVSSGSASAPTGGGGSGGGGSGGGGSEIVLTQSPLSLPVTPGEPASISCRSSESLLHSNGHNFLDWYLQKPGQSPRLLIYSASNRASGVPDRFSGSGSGTDFTLKISRVEAEDVGVYYCMQGLQGLTFGGGTKVEIK[gap - human IgG1 Fc]		> 81%		> 86%
